We go through 59 compounds from the supplement of paper PMC9446081.

Screen size: about 39,000 compounds; about 220 (0.56%) showed activity. Some of the results follow.
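Note: static incubation at 37 °C against the wild-type strain, values averaged over two biological replicates.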

In the test the test system is Escherichia coli K-12 BW25113. Nature of the test: relative growth (OD600 normalised to plate interquartile mean) (fraction); higher = less growth inhibition, active = 0.2 or less. The following applies: 50 µM; LB; incubation time: overnight (16-24 h).
As for `CCCNC(=O)N(C)C[C@@H]1Oc2ncc(-c3ccc(C(=O)N(C)C)cc3)cc2C(=O)N([C@H](C)CO)C[C@@H]1C`, the relative growth was inactive: 0.991.
The result for `COc1ccc(CN(C)C[C@H]2Oc3ccc(NS(=O)(=O)c4cn(C)cn4)cc3C(=O)N([C@@H](C)CO)C[C@H]2C)cc1` reads inactive: 1.02.
For the compound `C[C@@H]1CCCCO[C@@H](CN(C)C(=O)Nc2ccc3c(c2)OCO3)[C@@H](C)CN([C@@H](C)CO)C(=O)c2cc(NS(=O)(=O)c3ccccc3)ccc2O1`, the relative growth was inactive: 1.01.
Take `C[C@H]1O[C@@H](OC[C@H]2O[C@@H](Oc3c(-c4ccc(O)c(O)c4)oc4cc(O)cc(O)c4c3=O)[C@@H](O)[C@@H](O)[C@@H]2O)[C@@H](O)[C@@H](O)[C@@H]1O`: the relative growth was inactive: 1.02.
As for `CC(C)NC(=O)N(C)C[C@@H]1Oc2c(NS(=O)(=O)c3ccccc3)cccc2C(=O)N([C@H](C)CO)C[C@H]1C`, the relative growth was inactive: 1.02.
On to `C[C@@H]1CN([C@H](C)CO)C(=O)c2cc(NS(=O)(=O)c3cccs3)ccc2O[C@H]1CN(C)Cc1ccc(-c2ccccc2)cc1`, for which the relative growth was inactive: 0.997.
Regarding `COc1cccc(NC(=O)N(C)C[C@@H]2Oc3cc(C#CC4(O)CCCC4)ccc3S(=O)(=O)N([C@H](C)CO)C[C@H]2C)c1`, the relative growth was inactive: 1.
With `C[C@H]1CN([C@@H](C)CO)C(=O)c2cccc(NC(=O)c3nc4ccccc4s3)c2O[C@H]1CN(C)C(=O)Nc1cccc2ccccc12`, the relative growth is inactive: 1.02.
As to `CC(C)NC(=O)N(C)C[C@H]1Oc2ccc(NS(=O)(=O)c3ccc(F)cc3)cc2CC(=O)N([C@@H](C)CO)C[C@H]1C`, the relative growth is inactive: 1.01.
As to `Cc1ccc(S(=O)(=O)Nc2ccc3c(c2)C(=O)N([C@@H](C)CO)C[C@@H](C)[C@@H](CN(C)C(=O)Nc2ccc(F)cc2)OCCCC[C@@H](C)O3)cc1`, the relative growth was inactive: 1.03.
As to `C[C@@H]1CN([C@@H](C)CO)C(=O)c2cc(NC(=O)C3CCCCC3)ccc2O[C@@H](C)CCCCO[C@@H]1CN(C)Cc1ccc(C(=O)O)cc1`, the relative growth is inactive: 0.989.
Regarding `COCC(=O)Nc1ccc2c(c1)OC[C@H](C)N(Cc1ccccc1OC)C[C@H](C)[C@H](OC)CN(C)C2=O`, the relative growth was inactive: 1.02.
Take `C[C@@H]1CN([C@@H](C)CO)S(=O)(=O)c2ccc(-c3cccc(C#N)c3)cc2O[C@H]1CN(C)C(=O)c1cccnc1`: the relative growth was inactive: 0.954.
Regarding `Cc1noc(C)c1NC(=O)Nc1ccc2c(c1)C(=O)N([C@@H](C)CO)C[C@H](C)[C@@H](CN(C)C(=O)Nc1ccc(C(F)(F)F)cc1)O2`, the relative growth is inactive: 0.952.
For `C[C@H]1CN([C@@H](C)CO)C(=O)c2cc(NC(=O)Cc3ccccc3)ccc2O[C@@H]1CN(C)C(=O)Nc1ccc(C(F)(F)F)cc1`, the relative growth was inactive: 0.991.
With `O=C(O)[C@H]1Cc2ccccc2CN1`, the relative growth was inactive: 1.
On to `C[C@H]1CN([C@@H](C)CO)C(=O)Cc2cc(NC(=O)Nc3ccc(C(F)(F)F)cc3)ccc2O[C@H]1CN(C)Cc1ccc(C(=O)Nc2ccccc2N)cc1`, for which the relative growth is inactive: 1.04.
For the compound `C[C@H]1CN([C@@H](C)CO)C(=O)c2cc(NC(=O)CCN3CCOCC3)ccc2O[C@H]1CN(C)C(=O)NC1CCCCC1`, the relative growth was inactive: 0.98.
Turning to `C[C@H](CO)N1C[C@H](C)[C@H](CN(C)Cc2ccc(-c3ccccc3)cc2)Oc2ccc(NC(=O)CCC(F)(F)F)cc2C1=O`, the relative growth is inactive: 1.02.
The result for `O=C(CS)NCCCCCNC(=O)[C@@H]1C[C@@H]2C(=O)NCC(=O)N2[C@@H]1c1cccc(OCCO)c1` reads inactive: 0.982; that for `COc1ccc(CN(C)C[C@@H]2Oc3ccc(NS(C)(=O)=O)cc3C(=O)N([C@H](C)CO)C[C@@H]2C)cc1`, inactive: 1; that for `C[C@H]1CN([C@@H](C)CO)C(=O)c2ccccc2-c2ccccc2CO[C@@H]1CN(C)C(=O)Nc1ccc(-c2ccccc2)cc1`, inactive: 1.01.
`COc1ccc(-c2cnc3c(c2)C(=O)N([C@@H](C)CO)C[C@@H](C)[C@@H](CN(C)C(=O)Cc2ccccn2)O3)cc1`: the relative growth was inactive: 0.986.
Consider `CC(=O)OC1CC(OC(C)=O)C2(C)C(CC(O)C3(C)C2CCC2(C)C(c4ccoc4)OC(=O)C4OC423)C1(C)C` (centres undefined), for which the relative growth is inactive: 0.981.
Take `C[C@H]1CCCCO[C@@H](CN(C)Cc2ccc3c(c2)OCO3)[C@@H](C)CN([C@@H](C)CO)C(=O)c2cc(NC(=O)Nc3cccc4ccccc34)ccc2O1`: the relative growth was inactive: 0.993.
For `O=C1c2ccncc2C(=O)N1CO`, the relative growth is inactive: 1.02.
Turning to `C[C@@H]1CN([C@@H](C)CO)C(=O)Cc2cc(NC(=O)C3CCCCC3)ccc2O[C@H]1CN(C)C(=O)Nc1ccc(C(F)(F)F)cc1`, the relative growth is inactive: 1.03.
Turning to `C[C@H](CO)N1C[C@H](C)[C@@H](CN(C)Cc2ccc(-c3ccccc3)cc2)Oc2ccc(NC(=O)NC3CCCCC3)cc2C1=O`, the relative growth was inactive: 0.99.
With `C[C@H]1CCCCO[C@H](CN(C)Cc2ccc3c(c2)OCO3)[C@@H](C)CN([C@@H](C)CO)C(=O)c2cc(NS(=O)(=O)c3ccc(Cl)cc3)ccc2O1` the figure was inactive: 0.887.
The result for `NCCCC[C@@H]1NC(=O)[C@H]2C[C@@H](C(=O)NCc3ccc(F)cc3)[C@@H](c3cccc(OCCO)c3)N2C1=O` reads inactive: 1.01; that for `COc1ccccc1CN1C(=O)c2ccccc2[C@](Cc2ccccc2I)(C(=O)O)[C@@H]1c1ccc(CO)cc1`, inactive: 1.02.
With `C[C@@H]1CCCCO[C@H](CN(C)S(=O)(=O)c2cccs2)[C@H](C)CN([C@@H](C)CO)C(=O)c2cc(NC(=O)Nc3ccc(F)cc3)ccc2O1`, the relative growth was inactive: 1.03.
Turning to `COc1ccc(CNC(=O)C[C@H]2C[C@@H]3c4cc(NS(=O)(=O)c5ccc(F)cc5)ccc4O[C@@H]3[C@H](CO)O2)cc1`, the relative growth was inactive: 0.981.
With `Cn1cnc(S(=O)(=O)N2C[C@@H](O)COC[C@@H]3O[C@@H](CC(=O)NCc4cc(F)cc(F)c4)CC[C@H]32)c1`, the relative growth is inactive: 1.01.
With `CC(C)NC(=O)N[C@H]1CC[C@H](CCN)O[C@@H]1CO` the figure was inactive: 0.987; with `C[C@H](O)C#Cc1ccc2c(c1)O[C@H](CN(C)C(=O)CN(C)C)[C@@H](C)CN([C@@H](C)CO)S2(=O)=O`, inactive: 1.03; with `NCCCCCNC(=O)[C@@H]1C[C@@H]2C(=O)N[C@@H](Cc3ccccc3)C(=O)N2[C@@H]1c1cccc(OCCO)c1`, inactive: 1.01.
Turning to `COCC#Cc1ccc2c(c1)O[C@@H](CN(C)C(=O)C1CCOCC1)[C@H](C)CN([C@H](C)CO)S2(=O)=O`, the relative growth is inactive: 0.993.
In the case of `CC(C)N1CC[C@H](CNCc2ccc(Oc3ccccc3)cc2)Oc2c(NC(=O)c3ccncc3)cccc2C1=O`, the relative growth is inactive: 1.07.
With `CCC(=O)NS(=O)(=O)c1ccccc1` the figure was inactive: 0.985.
In the case of `COc1ccc2c3c(n(c2c1)C)[C@H](CO)N(Cc1ccccc1)C[C@]13CCN(CC1)C(=O)c1ccccc1F`, the relative growth was inactive: 1.02.
The result for `COc1cc(NC(C)CCCN)c2ncccc2c1.O=P(O)(O)O.O=P(O)(O)O` (centres undefined) reads inactive: 0.836; that for `C[C@H]1CN([C@@H](C)CO)C(=O)Cc2cc(NS(C)(=O)=O)ccc2O[C@H]1CN(C)C(=O)Nc1ccc(C(F)(F)F)cc1`, inactive: 0.996; that for `COC(=O)C[C@H]1CC[C@H]2[C@@H](COC[C@H](O)CN2S(=O)(=O)c2ccc(F)cc2)O1`, inactive: 0.969.
As for `CN(C)CCC(c1ccc(Br)cc1)c1ccccn1.O=C(O)C=CC(=O)O` (centres undefined), the relative growth is inactive: 1.04.
As to `C[C@H](CO)N1C[C@H](C)[C@H](CN(C)C(=O)Nc2cccc3ccccc23)Oc2ccc(NS(=O)(=O)c3ccc(Cl)cc3)cc2CC1=O`, the relative growth was inactive: 1.01.
With `Cc1cc(C(=O)Nc2cccc3c2O[C@H](CN(C)S(=O)(=O)c2c(C)noc2C)[C@H](C)CN([C@H](C)CO)C3=O)n(C)n1` the figure was inactive: 1.01; with `C[C@@H]1CCCCO[C@@H](CN(C)Cc2ccccc2)[C@H](C)CN([C@@H](C)CO)C(=O)c2cc(NS(=O)(=O)c3ccc(Cl)cc3)ccc2O1`, inactive: 0.999; with `C[C@@H]1CN([C@H](C)CO)C(=O)Cc2cc(NC(=O)Cn3cnnn3)ccc2O[C@H]1CN(C)Cc1ccc(-c2ccccc2)cc1`, inactive: 1.05.
In the case of `Cc1ccc2nc(-c3ccc(/N=C\c4ccc[nH]4)cc3)sc2c1`, the relative growth is inactive: 1.03.
Take `C=CCOC(=O)[C@@H]1[C@H]2C(=O)O[C@H](c3ccccc3)[C@H](c3ccccc3)N2[C@H](c2ccc(OCCOC(=O)[C@@H]3C[C@@H]4C(=O)N[C@@H](CCCCNC(C)=O)C(=O)N4[C@@H]3c3ccc(O)cc3)cc2)[C@@]12C(=O)Nc1ccc(I)cc12`: the relative growth was inactive: 1.03.
The result for `O=C(O)/C=C\C(=O)O` reads inactive: 0.956.
With `O=C(CS)NCCCCCNC(=O)[C@@H]1C[C@@H]2C(=O)N[C@@H](Cc3ccccc3)C(=O)N2[C@@H]1c1ccc(O)cc1`, the relative growth was inactive: 0.989.
Regarding `C[C@@H]1CN([C@@H](C)CO)C(=O)c2cc(NC(=O)Nc3ccc4c(c3)OCO4)ccc2O[C@@H](C)CCCCO[C@@H]1CN(C)C(=O)Cc1ccccc1`, the relative growth is inactive: 1.07.
Consider `C[C@@H]1CN([C@H](C)CO)S(=O)(=O)c2ccc(C#Cc3ccc(F)cc3)cc2O[C@H]1CN(C)C(=O)CN(C)C`, for which the relative growth was inactive: 0.998.
The result for `C[C@H]1CN([C@@H](C)CO)C(=O)c2cc(NC(=O)CCCCCC(=O)Nc3ccccc3N)ccc2O[C@H]1CN(C)C(=O)Nc1ccc(F)cc1` reads inactive: 0.981.
Consider `O=C(N1CCOCC1)[C@@]1(CCS(=O)(=O)c2ccccc2)N=C(c2ccc(OCCCO)cc2)O[C@H]1c1ccccc1`, for which the relative growth was inactive: 1.01.
As for `CC(C)(C)c1ccc(-c2nc3ccccc3s2)cc1`, the relative growth was inactive: 0.975.
Take `Cc1ccccc1S(=O)(=O)N1C[C@H](O)COC[C@@H]2O[C@H](CC(=O)NCCc3ccncc3)CC[C@H]21`: the relative growth was inactive: 0.992.
